Results taken from patent publication US20200179510A1, “LOW DENSITY LIPOPROTEIN RECEPTOR RELATED PROTEIN 5 INHIBITION SUPPRESSES TUMOR FORMATION” (YALE UNIVERSITY, priority 2017, published 2020).

Tests used:
[1] = system: inguinal lymph node leukocytes; assay: Flow cytometry of tumor draining lymph nodes, MC38 model; assay type: in vivo, mouse
Method: (§1) Cells in single cell suspension were fixed with 2% PFA (Santa-Cruz sc-281692). After washing with a Flow Cytometry Staining Buffer (eBioscience 00-4222-26), cells were stained with antibodies for cell surface markers for 1 hour on ice in the dark. For staining of intracellular proteins, the cells were washed and resuspended in the Permeabilization Buffer (BD 554723) and stained by antibodies in the Permeabilization Buffer for 1 hour on ice in the dark. The cells were then pelleted and resuspended in the Flow Cytometry Staining Buffer for flow cytometry analysis.

[2] = system: leukocytes in Peyer's patches; assay: Flow cytometry of leukocytes in Peyer's patches of APC^Min/+ mice; assay type: in vivo, mouse; conditions: one dose 8 mg/kg i.p., 24 hours
Method: as §1

[3] = system: intestinal polyps of APC^Min/+ mice; assay: Tumor burden (intestinal polyps) in APC^Min/+ mice; assay type: in vivo, mouse; conditions: 8 mg/kg twice a week i.p., 8 weeks
Source text: The role of DKK2 in tumorigenesis was further tested by examining the effects of DKK-2 deficiency on polyp formation in APC^Min/+ mice (designated APC) and APC^Min/+ DKK2^−/− (APCKO) mice. Mice were housed in a specific pathogen free vivarium and fed with regular or high fat chow. Intestinal sections were stained with methylene-blue and polyps were counted under a stereomicroscope. […] There were smaller and fewer intestinal polyps in an APC^Min/+ DKK2^−/− mice than in APC^Min/+ mice, as shown in representative histological sections of intestine, stained with haematoxylin and eosin, from male mice fed regular chow (FIG. 1C).
To investigate if the 5F8 antibody reduced polyp formation in APC^Min/+ mice, similar to DKK2 deficiency in APC^Min/+ DKK2^−/− mice, the tumor burden was analyzed in treated and control mice. […] Further, the number of polyps in 5F8-treated APC^Min/+ mice was essentially the same as the number of polyps found in APC^Min/+ DKK2^−/− mice, either 5F8 or control IgG treated mice (FIG. 1G). Taken together, the results provide proof of principle evidence that 5F8 is a blocking antibody for DKK2 that suppresses tumor formation via the Wnt co-receptor LRP 5/6 pathway. Further, 5F8 blocks the interaction between DKK2 and LRP5 interaction, but in doing so, 5F8 also promoted DKK2-mediated disinhibition of Wnt signaling.

MC38 tumors [4] = assay: MC38 syngeneic tumor graft in C57BL mice; assay type: in vivo, mouse
Method: (§2) Tumor growth was measured by calipers, and size was expressed as one half of the product of perpendicular length by square width in cubic millimeters. For antibody treatment, control IgG3 antibody and anti-DKK2 antibody were diluted in PBS, and 100 μl was injected i.p. at intervals indicated in the Figures. For survival tests, mice are euthanized when the tumor size exceeding 1800 mm3 for MC38 and 1200 mm3 for YUMM1.7.
MC38 cells, which were derived from mouse colon carcinoma in a C57BL mouse, progress very fast when grafted to immunocompetent WT C57BL mice. Thus, this allograft model, also known as a syngeneic model, can be used to test the therapeutic potential of the anti-DKK2 antibody 5F8 in vivo with a functional host immune system. In one study, C57BL mice (10 week old female mice, n=5 per group) were grafted with MC38 cells via the subcutaneous (s.c.) route. Fourteen days later, the mice were treated every 3 days via the intraperitoneal (i.p.) route with mouse IgG or 5F8 (8 mg/kg). Tumors were collected on Day 22 and weighed.

[5] = system: tumor infiltrated leukocytes (CD8+ and NK1.1+ cells); assay: Flow cytometry of tumor infiltrated leukocytes, MC38 tumors; assay type: in vivo, mouse; conditions: one injection 10 mg/kg i.p., 24 hours
[6] = system: Wnt reporter gene TOPFlash; assay: Wnt reporter gene (TOPFlash) assay in HEK293 cells; assay type: cell-based; conditions: Wnt3A CM, 5F8 120 nM (FIG. 1E)
Method: The Stat5 reporter assays were done in HEK293T cells for activated JAK1-induced activity or in those stably expressing JAK3, IL2/15Rβ and the common receptor γ subunit for IL15 induced activity. Cells were seeded at 8×10^4 cells per well in 48 well plate. The next day, cells were transfected by Lipofectamine 2000 (Invitrogen) with the pGL4.52-STAT5-Luciferase (Promega) and tagRFP (internal control) plasmids together with other plasmids expressing genes of interest. The total amount of plasmid was kept at 125 ng per well. The cells were added 24 hours after transfection with IL15/IL15Rα-Fc complex or mock. Six hours later, the cells were lysed and subjected to RFP fluorescence and luciferase luminescence measurement using an Envision Multilabel plate reader. The reporter gene activity is shown after being normalized against RFP readings. The LEF reporter assay was carried out in HEK293 cells that were transfected with the TOPFlash and GFP plasmids. The rest is the same as above. The reporter gene activity is shown after being normalized against GFP readings.
A functional mouse monoclonal anti-DKK2 antibody (5F8) was developed to specifically target and neutralize DKK2, but to not cross react with DKK-1. […]

MC38 tumors [7] = assay: MC38 tumor graft in NOD scid gamma (NSG) mice; assay type: in vivo, mouse; conditions: 10 mg/kg every three days from Day 6
Method: as §2, with “MC38 or YUMM1.7 melanoma tumor cells (0.5-1×106) were mixed with BD Matrigel (Matrix Growth Factor Reduced) (BD 354230) in 100 μl and inoculated subcutaneously at the right flanks of the backs of female C57/BL mice (8-10 weeks old). Tumor” for “Tumor”

B1: 5F8: Mouse monoclonal antibody to DKK2, raised against a synthetic peptide of human DKK2 (SEQ ID NO: 21); chains SEQ ID NOs: 22, 23 (antibody, V domains shown)
VH: GAELVRPGASVKLSCKASGYSFTNYWMNWVKQRPGQGLEWIGMIHPSDSETRLNQKFKDKATLTVDKSSSTAYMQLSSPTSEDSAVYYCAREGRLGLRSYAMDYWGQGTSVTVSS
VL: PSSLAMSVGQKVTMSCKSSQSLLNSSNQKNYLAWYQQKPGQSPKLLVYFASTRESGVPDRFVGSGSGTDFTLTITSVQAEDLADYFCQQHYITPLTFGAGTKLE
granzyme B in CD8+ cells of tumor draining lymph nodes ([1]; vs IgG3): a trend towards an increase in granzyme B | granzyme B in NK1.1+ cells of tumor draining lymph nodes ([1]; vs IgG3): a significant increase in granzyme B | populations of CD4+, CD8+, NK1.1+ cells in tumor draining lymph nodes ([1]; vs isotype): no significant differences | populations of T lymphocytes in Peyer's patches [2]: without affecting the populations of T lymphocytes cells | granzyme B-positive CD8+ cells in Peyer's patches ([2]; vs control IgG): markedly increased granzyme B-positive CD8+ cells | number of intestinal polyps [3]: significantly diminished the number of intestinal polyps | anti-tumor effect, MC38 model, DKK2/PD-1 blockade study (MC38 tumors [4]; 10 mg/kg i.p. every 5 days starting Day 18): tumor suppressive effects | tumorigenic growth of grafted MC38 cells (tumor volume and weight) (MC38 tumors [4]; C57BL, i.p. every 3 days from Day 14, vs IgG3): significantly inhibited the tumorigenic growth | tumor progression (tumor volume and weight), short study (MC38 tumors [4]; MC38, 5F8 10 mg/kg i.p. Days 9 and 12, collected Day 14, vs IgG): reduced tumor volume and weight | tumor suppressive effect after depletion of NK or CD8+ cells (MC38 tumors [4]; MC38, anti-NK1.1 or anti-CD8a 300 ug/mouse, 5F8 10 mg/kg every three days): largely diminished the tumor suppressive effect of 5F8 | survival (MC38 tumors [4]; MC38 in C57BL, 5F8 10 mg/kg every three days i.p., n=10): improved survival rates | tumor sizes after acute treatment [5]: no obvious differences in tumor sizes | DKK2-mediated inhibition of Wnt reporter gene activity induced by Wnt3A [6]: antagonizes DKK2-mediated inhibition of Wnt reporter gene activity | tumor suppressive effect in immunodeficient NSG mice (MC38 tumors [7]): failed to show its tumor suppressive effect
